Variants at the background level are over-represented here.
B1: TPR 5TU (parent)
chain: GGAUCUUCUCGAUCUAACAAAAAAGACAAAUCUGCCACAAAGCUUGAGAGCAUCUUCGGAUGCAGAGGCGGCAGCCUUCGGUGGCGCGAUAGCGCCAACGUUCUCAACUAUGACACGCAAAACGCGUGCUCCGUUGAAUGGAGUUUAUCAUG

Variants of: B1
Assay: polymerase ribozyme fitness, log enrichment relative to wild type (log ratio); higher = more active; in vitro selection for triplet polymerase activity
Method in brief: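 To select mutant libraries of each subunit of a heterodimeric triplet polymerase ribozyme, built by PCR and transcribed, each was annealed with a biotinylated primer, partner subunit and triplets, then incubated frozen at −7 °C. Extended constructs were gel-excised, captured on streptavidin beads and amplified by RT-PCR, in one round carried out in triplicate. Illumina sequencing of input and output libraries kept genotypes with ≥10 input reads and ≥1 read per output. Fitness is the base-2 logarithm of genotype enrichment relative to wild-type enrichment, from inverse-variance-weighted replicate averages.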

Variant	polymerase ribozyme fitness (log ratio)
C93A A138C U151C	≤ -4.2
C93A A150C	-3.74
C93A C95A C123G	≤ -4.2
C93A C95G A119G U144G	≤ -4.2
C93A C95U A107G U127C G141C	≤ -4.2
C93A C96G C99U C116G C118U A119U U148C	≤ -4.2
C93A C108G	≤ -4.2
C93A C116A G126A G141C	≤ -4.2
C93A C125A	-1.68
C93A G100A C132G U139C	≤ -4.2
C93A G124C	-2.88
C93A G133U	≤ -4.2
C93A G140A A142U	≤ -4.2
C93A G141A	-1.74
C93A G143A	-2.78
C93A U101C A106U A150G	≤ -4.2
C93A U101G U104C C125G	≤ -4.2
C93A U102A A137C	≤ -4.2
C93A U148A	≤ -4.2
C93A U148C	-3.62
C93G A98U C114A	-3.85

Variant	polymerase ribozyme fitness (log ratio)
C93G A121U A142U	≤ -4.2
C93G A142G	-3.81
C93G A150C	≤ -4.2
C93G C95G G143C	≤ -4.2
C93G C95U C103G G143C U144G	≤ -4.2
C93G C96A C105U C116U	-4.17
C93G C96U A122C G124A U148G	≤ -4.2
C93G C99A G140A	≤ -4.2
C93G C105U A107G C125G	≤ -4.2
C93G C118G C132A	≤ -4.2
C93G C132G	≤ -4.2
C93G C149G	≤ -4.2
C93G G94A A97C	≤ -4.2
C93G G141U	-2.01
C93G G143A U146G	≤ -4.2
C93G U144A	-2.68
C93G U144C A150C	≤ -4.2
C93G U146G	-3.41
C93G U148C	≤ -4.2
C93U A97G G124A C131G U145A	≤ -4.2
C93U A98G C103A	-2.73

Variant	polymerase ribozyme fitness (log ratio)
C93U A98G G124C	-1.76
C93U A107G A115U U148G	≤ -4.2
C93U A107U C116U A142C	≤ -4.2
C93U A115C G117C U135G G136C	≤ -4.2
C93U A115U U139C G141U G143C	≤ -4.2
C93U A121C G140C	≤ -4.2
C93U A138C	≤ -4.2
C93U A138G G140C A147U	≤ -4.2
C93U C95G C108G	≤ -4.2
C93U C95U U135G U146A	≤ -4.2
C93U C99A G128C	≤ -4.2
C93U C99G G136A U145G	-1.59
C93U C99U C114G	-3.73
C93U C103A C108G	≤ -4.2
C93U C105A C114A A137C	≤ -4.2
C93U C114U	-2.54
C93U C123G U130G	≤ -4.2
C93U C123U U127C U135C	≤ -4.2
C93U C125U	-1.43
C93U G124U U139A	≤ -4.2
C93U G128U	-3.6

Variant	polymerase ribozyme fitness (log ratio)
C93U G152A	-3.11
C93U G152U	-3.49
C93U U104G G133A	≤ -4.2
C93U U127A C131A	≤ -4.2
C93U U139A U148C	≤ -4.2
C93U U146G	-1.47
C93U U151A	≤ -4.2
G94A	-0.622
G94A A97G	-2.19
G94A A106C G136A	-0.404
G94A A107U C114U	≤ -4.2
G94A A113U A120U	-1.56
G94A A115U	-1.76
G94A C95G G133A U134G A137U	-4.11
G94A C96U G112A G126C G140C U144C	≤ -4.2
G94A C103U A115C U148C	≤ -4.2
G94A C116A U148G	≤ -4.2
G94A G117U A119C C131A A147U	≤ -4.2
G94A G136C	-3.98
G94A U101A A120U C149G	≤ -4.2
